From the supplement of paper PMC3334620
In all, about 33,000 sequences were measured (“E-score (-0.5 to 0.5)”: median about -0.054, highest 2% from about 0.35 on). The list shows a part of the results.

These sequences were tested against T1, Stb5 (UniProt P38699) (assay: PBM E-score (8-mer binding enrichment) (E-score (-0.5 to 0.5)); higher = stronger / more preferred TF binding; most listed sequences are background and not binding sites). Details: protein concentration: 200 nM; construct: GST-full length.
T1 sequence: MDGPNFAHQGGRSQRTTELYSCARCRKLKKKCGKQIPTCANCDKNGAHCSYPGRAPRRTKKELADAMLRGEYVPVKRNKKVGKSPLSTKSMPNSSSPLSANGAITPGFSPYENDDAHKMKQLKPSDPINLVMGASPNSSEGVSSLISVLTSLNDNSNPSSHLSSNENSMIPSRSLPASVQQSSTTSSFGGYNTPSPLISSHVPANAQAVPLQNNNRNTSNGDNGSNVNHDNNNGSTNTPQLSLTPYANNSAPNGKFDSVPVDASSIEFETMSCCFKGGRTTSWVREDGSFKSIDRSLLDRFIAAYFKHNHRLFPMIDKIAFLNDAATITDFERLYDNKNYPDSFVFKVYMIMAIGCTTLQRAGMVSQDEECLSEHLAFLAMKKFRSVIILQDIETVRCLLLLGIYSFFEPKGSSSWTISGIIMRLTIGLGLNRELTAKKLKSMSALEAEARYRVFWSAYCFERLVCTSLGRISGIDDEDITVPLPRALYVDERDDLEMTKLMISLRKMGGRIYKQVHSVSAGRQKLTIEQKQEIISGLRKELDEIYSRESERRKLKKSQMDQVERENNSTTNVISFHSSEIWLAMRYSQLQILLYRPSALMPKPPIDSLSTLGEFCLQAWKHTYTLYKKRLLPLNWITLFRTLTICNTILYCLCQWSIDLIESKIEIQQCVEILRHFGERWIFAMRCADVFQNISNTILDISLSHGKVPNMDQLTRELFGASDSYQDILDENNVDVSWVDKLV
Method in brief: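 Detection of bound protein used fluorescent anti-GST, with scans normalised by masliner. The proteins were GST-tagged yeast transcription factors applied at about 100-200 nM to universal all-10-mer Agilent arrays made double-stranded by primer extension. Each ungapped eight-base word, pooled with its reverse complement, was scored with an E-score from the Universal PBM Analysis Suite.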
With CACCACCA the “PBM E-score” value was -0.147. For AAATGCGG, the “PBM E-score” value was 0.212. For GTTTGAAA, the “PBM E-score” value was -0.0201. For ACAATGTG, the “PBM E-score” value was -0.258. In the case of GCCACATA, the “PBM E-score” value is reported as 0.00329. For CGCTTACC, the “PBM E-score” value was 0.0132. With ACATGCGT the “PBM E-score” value was -0.123. With CGAAGTGC the “PBM E-score” value was 0.0417. With GTATTCCA the “PBM E-score” value was -0.0568. In the case of TTACTAAA, the “PBM E-score” value is reported as -0.0138. For CCTAGGCG, the “PBM E-score” value was -0.235. With CATGATTC the “PBM E-score” value was -0.129. For ACACAACC, the “PBM E-score” value was -0.136. For GTCAGAAA, the “PBM E-score” value was -0.222. AATAAAAC was tested, and the “PBM E-score” value was 0.114. GGCAAGTA was tested, and the “PBM E-score” value was 0.0287. With ATAATGGA the “PBM E-score” value was 0.0837. In the case of CGTGCAGC, the “PBM E-score” value is reported as -0.044. For ACCCATTC, the “PBM E-score” value was -0.127. For GGGGGCCA, the “PBM E-score” value was -0.0999. In the case of ATTACTAA, the “PBM E-score” value is reported as 0.00433. With ACATGCTG the “PBM E-score” value was -0.199. For ATACTATG, the “PBM E-score” value was -0.0158. In the case of AATAAGCG, the “PBM E-score” value is reported as 0.026. CCCGTAGC was tested, and the “PBM E-score” value was 0.0927. For CTACACAC, the “PBM E-score” value was -0.15. AATTCACA was tested, and the “PBM E-score” value was -0.17. CAACGTTA was tested, and the “PBM E-score” value was 0.0299. GACGGGGC was tested, and the “PBM E-score” value was 0.309. AGCTCCAA was tested, and the “PBM E-score” value was -0.313. With GGCCTCGA the “PBM E-score” value was -0.0639. CCTGGCAA was tested, and the “PBM E-score” value was -0.253. GTCACTAA was tested, and the “PBM E-score” value was -0.073. In the case of ATTACCGC, the “PBM E-score” value is reported as 0.419. TCAAGGGA was tested, and the “PBM E-score” value was 0.0305. With AGGCGCGA the “PBM E-score” value was -0.00867. With ATCAACCC the “PBM E-score” value was -0.00187. In the case of GCTTCCCC, the “PBM E-score” value is reported as -0.0123. For TAGTCTCA, the “PBM E-score” value was -0.146. AAGGGTGC was tested, and the “PBM E-score” value was -0.195. In the case of ACCCCACA, the “PBM E-score” value is reported as -0.121. In the case of CATTTCCG, the “PBM E-score” value is reported as 0.183. For ACCCAGAG, the “PBM E-score” value was -0.109. For CCCGCCAG, the “PBM E-score” value was 0.318. CTACGACA was tested, and the “PBM E-score” value was -0.0655. In the case of CGTTAGGC, the “PBM E-score” value is reported as 0.147. With CAAAAAGA the “PBM E-score” value was -0.115. AACCTACT was tested, and the “PBM E-score” value was 0.00837. In the case of CTCGGAGC, the “PBM E-score” value is reported as 0.0927. In the case of CATTTGGA, the “PBM E-score” value is reported as 0.0571. AGAGTTCA was tested, and the “PBM E-score” value was -0.277. GACCCGTC was tested, and the “PBM E-score” value was 0.203. With CGGGGGGA the “PBM E-score” value was 0.181. With AGGGCTGG the “PBM E-score” value was -0.0581. In the case of AACATATA, the “PBM E-score” value is reported as 0.0905. For CTAAGTTC, the “PBM E-score” value was -0.148. In the case of GGAGATCC, the “PBM E-score” value is reported as 0.0751. TTGCAAAA was tested, and the “PBM E-score” value was 0.0291. In the case of AATGTCTA, the “PBM E-score” value is reported as -0.258. In the case of CACCGACC, the “PBM E-score” value is reported as 0.418. For AGACCGCA, the “PBM E-score” value was 0.275. In the case of ACTGCGAT, the “PBM E-score” value is reported as -0.12. In the case of AATGTTAA, the “PBM E-score” value is reported as -0.0426. For CAAGCAAG, the “PBM E-score” value was -0.086. For GCAGTTTA, the “PBM E-score” value was 0.101. With CTGAGGGA the “PBM E-score” value was -0.213. With GTACGCAA the “PBM E-score” value was -0.167. With CCCAAGTA the “PBM E-score” value was -0.169. With CCCGGCAC the “PBM E-score” value was 0.165. In the case of AATCAAGG, the “PBM E-score” value is reported as 0.0379. With CTAGCAGA the “PBM E-score” value was -0.129. In the case of GGGACCTA, the “PBM E-score” value is reported as 0.138. For AGAGTCTA, the “PBM E-score” value was -0.327. In the case of CGCACACG, the “PBM E-score” value is reported as 0.0188. In the case of GTCAAGAA, the “PBM E-score” value is reported as -0.158. With ATTGTGAC the “PBM E-score” value was -0.131. ATTTAAAA was tested, and the “PBM E-score” value was 0.133. CAATAATA was tested, and the “PBM E-score” value was 0.0756. CCCAAACC was tested, and the “PBM E-score” value was -0.00895. In the case of CAGCCTTA, the “PBM E-score” value is reported as -0.226. For AAGTGGAA, the “PBM E-score” value was -0.0939. In the case of CGAACCTC, the “PBM E-score” value is reported as -0.0918. In the case of ACTGGGCC, the “PBM E-score” value is reported as -0.0838. In the case of AACGGTGC, the “PBM E-score” value is reported as 0.332. For AGCACCGC, the “PBM E-score” value was 0.461. For AGCTGAAG, the “PBM E-score” value was -0.336. With TAGAAGCA the “PBM E-score” value was -0.248. In the case of AGGTGTTG, the “PBM E-score” value is reported as -0.0336. TCATTCAA was tested, and the “PBM E-score” value was -0.225. In the case of GTGTCGGA, the “PBM E-score” value is reported as 0.357. For GGAGTGAA, the “PBM E-score” value was 0.00649. With ACCGCACC the “PBM E-score” value was 0.323. In the case of AACCATAA, the “PBM E-score” value is reported as -0.0356. With CTGGCCGA the “PBM E-score” value was 0.0454. GTACTGAA was tested, and the “PBM E-score” value was 0.00414. For ACAATGGC, the “PBM E-score” value was -0.237. In the case of AGACTTGC, the “PBM E-score” value is reported as -0.146. With CGGATCCC the “PBM E-score” value was 0.134. For AGCATTTA, the “PBM E-score” value was -0.184. ACGCGTCC was tested, and the “PBM E-score” value was -0.14. CTGGCAGC was tested, and the “PBM E-score” value was -0.126. In the case of GATAGGCC, the “PBM E-score” value is reported as 0.116. GATTACCC was tested, and the “PBM E-score” value was 0.183. With CAAAATCG the “PBM E-score” value was -0.0979. For ACGTCCCG, the “PBM E-score” value was 0.111. With CCTAAGGC the “PBM E-score” value was -0.136. For GACCCGAA, the “PBM E-score” value was 0.034. For CAATCATC, the “PBM E-score” value was -0.108. In the case of GCGAGACA, the “PBM E-score” value is reported as -0.163. For AGTTCTGG, the “PBM E-score” value was -0.249.
